Assay results published in article PMC4336329 (PLoS ONE, 2015).
In all, about 310,000 compounds went through this assay and about 14,000 (4.5%) showed an effect of 50% or more. The effect is printed as a negative number. The list shows a part of the results.

target: human ether-à-go-go-related gene (hERG) potassium channel (human, UniProt Q12809); assay: primary screen, population patch clamp on CHO cells stably expressing hERG
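Further: peak tail current of the secondary pulse compared with the same well before compound.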

Chain of human ether-à-go-go-related gene (hERG) potassium channel (Q12809 whole entry, looked up): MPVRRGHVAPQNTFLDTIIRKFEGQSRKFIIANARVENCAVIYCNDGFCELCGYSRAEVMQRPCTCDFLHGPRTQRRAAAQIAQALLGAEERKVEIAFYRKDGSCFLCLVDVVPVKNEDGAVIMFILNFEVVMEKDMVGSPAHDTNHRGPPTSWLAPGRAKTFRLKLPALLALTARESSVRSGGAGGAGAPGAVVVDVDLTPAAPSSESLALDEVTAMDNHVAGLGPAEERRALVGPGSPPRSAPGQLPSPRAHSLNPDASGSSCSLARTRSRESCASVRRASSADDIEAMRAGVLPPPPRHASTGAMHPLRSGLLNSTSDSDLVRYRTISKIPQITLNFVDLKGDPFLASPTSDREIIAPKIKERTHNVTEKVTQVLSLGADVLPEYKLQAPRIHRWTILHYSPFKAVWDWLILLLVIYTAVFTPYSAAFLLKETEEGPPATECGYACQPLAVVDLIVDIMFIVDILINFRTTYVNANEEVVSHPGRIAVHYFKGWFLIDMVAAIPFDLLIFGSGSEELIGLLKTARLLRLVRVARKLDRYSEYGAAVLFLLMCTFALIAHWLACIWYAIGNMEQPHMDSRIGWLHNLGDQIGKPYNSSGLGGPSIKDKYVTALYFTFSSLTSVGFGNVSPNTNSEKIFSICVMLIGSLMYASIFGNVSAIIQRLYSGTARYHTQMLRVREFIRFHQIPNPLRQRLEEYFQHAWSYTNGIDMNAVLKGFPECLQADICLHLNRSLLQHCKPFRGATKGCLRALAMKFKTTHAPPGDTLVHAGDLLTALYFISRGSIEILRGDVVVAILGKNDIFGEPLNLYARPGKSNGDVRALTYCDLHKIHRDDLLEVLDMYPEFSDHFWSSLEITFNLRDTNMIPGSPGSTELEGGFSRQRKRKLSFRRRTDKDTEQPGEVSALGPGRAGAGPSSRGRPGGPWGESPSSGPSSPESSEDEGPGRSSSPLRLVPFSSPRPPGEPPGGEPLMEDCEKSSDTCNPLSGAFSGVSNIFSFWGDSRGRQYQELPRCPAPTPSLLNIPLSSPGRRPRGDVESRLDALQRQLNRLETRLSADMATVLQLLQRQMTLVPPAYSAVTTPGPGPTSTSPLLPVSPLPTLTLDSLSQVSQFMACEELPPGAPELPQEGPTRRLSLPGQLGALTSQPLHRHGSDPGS

| Compound | hERG current change (%, negative = inhibition) at 10uM [%] |
| --- | --- |
| O=C(c1ccccc1)N1CCC(=O)N1c1ccccc1 | 2.26 |
| COc1cccc(NC(=S)N(CCN(C)C)C(C)c2ccco2)c1 (centres unmarked) | -26.9 |
| Cc1c(N2C(=O)CSC2c2ccc(F)cc2)c(=O)n(-c2ccccc2)n1C (centres unmarked) | 13.7 |
| COc1cc(/C=C/c2nc3ccccc3c(=O)n2-c2ccccc2O)ccc1O | -0.27 |
| COc1cc(OC)c2c(=O)cc(-c3ccccc3)oc2c1 | -13.7 |
| CCOC(=O)C1(CCOc2ccccc2)CCN(Cc2ccc(COC)o2)CC1 | -63.7 |
| Nc1ccc(N=Nc2ccc(N)cc2)cc1 | 22.3 |
| Brc1cccc(Nc2nc(-c3cccnc3)cs2)c1 | 29.1 |
| Cc1cc(C(F)(F)F)c2c(N)c(C(=O)Nc3cc(C)on3)sc2n1 | 4.53 |
| Cl.Clc1ccc(CNC2CN3CCC2CC3)cc1 (centres unmarked) | -28.6 |
| CCCc1nc(SCC(N)=O)[nH]c(=O)c1CC | 7.34 |
| C=CCN1C(=O)c2ccc(C(=O)N3CCN(S(=O)(=O)c4cccc(Cl)c4)CC3)cc2C1=O | -14.8 |
| COc1ccc(Br)cc1CN(C)CC(=O)NCc1ccc(F)cc1.O=C(O)C(=O)O | -19.3 |
| Cc1ccc(NC(=O)COC(=O)Cn2cnc3c2c(=O)n(C)c(=O)n3C)c(Cl)c1 | 4.68 |
| CCN=C(NC#N)SCc1c(F)cccc1Cl | 7.17 |
| c1ccc(CN2CCC(=NNc3nc4ccccc4[nH]3)CC2)cc1 | -17.1 |
| CC(C)c1nc(CNC(=O)CC2C(=O)NCCN2Cc2ccoc2)cs1 (centres unmarked) | -6.74 |
| C=CCN1C(=O)NC(=O)/C(=C/c2ccoc2)C1=O | 20.5 |
| CCCSc1nc(N)c(C#N)c(-c2ccc(C)cc2)c1C#N | 15.7 |
| CC(C)Cc1cc(C(=O)NCCc2ccccc2)no1 | -4.66 |
| Cc1ccc(C)c(N2CC(C(=O)Nc3nccs3)CC2=O)c1 (centres unmarked) | 8.88 |
| Cc1ccc(O)c(C(=O)c2cc(C#N)c(=O)n(-c3nccs3)c2)c1 | 5.96 |
| O=C(c1ccco1)N1N=C(c2ccc(Br)cc2)CC1(O)C(F)(F)F (centres unmarked) | 17.9 |
| CCOC(=O)CSc1nc(C)cc(Oc2ccc(=O)n(C)n2)n1 | 9.38 |
| O=S(=O)(NCC1CCCO1)c1ccc2ccccc2c1 (centres unmarked) | -7.09 |
| O=C(CSc1nnc2scc(-c3ccccc3)n12)N1CCCc2ccccc21 | -11.8 |
